About 1,100 (1.5%) of roughly 74,000 compounds were called active. The shares of active, inactive and inconclusive entries below differ from those in the screen. The call rests on the fitted dose curve; in most records, active means well fitted inhibition curve with a large enough effect; inconclusive means small, poorly fitted or top-dose-only effect; inactive means no such curve, though single readings can be large or run the other way. Potencies of inconclusive entries are left out as doubtful fits.
target: Polyunsaturated fatty acid lipoxygenase ALOX15 (Homo sapiens) (UniProt P16050); test: qHTS Assay for Inhibitors of 15-hLO (15-human lipoxygenase); conditions: purified 15hLO-1, xylenol orange hydroperoxide absorbance; activity change, negative = inhibition: at 57.1 µM (top of the series) unless noted; further: nearly all actives have a fitted effect of over 55% in size
How it was run: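 Inhibition is scored from a chromogenic endpoint. After 15 min enzyme-compound contact, arachidonic acid (50 uM final) reacts 6 min with 40 nM 15hLO-1 at room temperature, then Fe-XO reagent is added for 30 min and absorbance ratio recorded.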
On the % scale 0 is the no-effect control and ±100 the full control effect; potency means the concentration at half of the fitted maximal effect; tags describe the fitted curve by direction and shape.

Sequence of UniProt P16050 (P16050 whole entry, looked up): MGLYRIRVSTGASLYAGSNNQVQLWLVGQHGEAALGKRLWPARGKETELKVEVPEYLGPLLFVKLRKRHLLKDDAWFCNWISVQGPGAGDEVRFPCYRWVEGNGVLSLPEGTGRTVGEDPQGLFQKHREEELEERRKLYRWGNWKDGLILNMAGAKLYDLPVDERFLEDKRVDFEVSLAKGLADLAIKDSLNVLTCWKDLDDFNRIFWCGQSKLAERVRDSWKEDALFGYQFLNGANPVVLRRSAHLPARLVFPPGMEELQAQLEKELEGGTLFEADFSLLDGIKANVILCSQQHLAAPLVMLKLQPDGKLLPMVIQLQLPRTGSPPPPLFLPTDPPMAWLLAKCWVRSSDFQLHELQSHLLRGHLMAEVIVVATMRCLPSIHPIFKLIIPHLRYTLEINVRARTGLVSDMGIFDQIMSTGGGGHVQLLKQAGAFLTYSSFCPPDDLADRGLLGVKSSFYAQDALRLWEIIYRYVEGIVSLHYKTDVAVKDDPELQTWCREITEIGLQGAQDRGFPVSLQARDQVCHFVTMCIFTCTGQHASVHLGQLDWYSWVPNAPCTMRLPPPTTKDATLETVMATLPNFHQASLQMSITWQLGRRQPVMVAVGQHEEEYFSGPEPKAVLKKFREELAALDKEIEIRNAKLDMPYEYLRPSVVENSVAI

Structure (SMILES) | Potency | activity change, negative = inhibition
COc1ccc(NS(=O)(=O)c2ccc(I)cc2)cc1N1CCN(C)CC1 | inconclusive [inhibitor, full curve, poor fit] | –
O=S(=O)(c1ccc(Br)s1)N1CCN(c2ccccn2)CC1 | inactive | –
CC(=O)c1cccc(NC(=O)CN(c2ccc(C)cc2)S(=O)(=O)c2cccc3nonc23)c1 | inactive | –
CC(C)CC(=O)N1CCN(Cc2cccc(F)c2)CC1 | inconclusive [inhibitor, single point] | –
CS(=O)(=O)Nc1cccc(-c2cncnc2Nc2ccc(F)cc2)c1 | inconclusive [inhibitor, single point] | –
CC(=O)C1=C(C)NC(SCC(=O)c2ccc(C)cc2)=C(C#N)C1c1ccco1 (stereo unspecified) | active: 12.6 µM | –
Cc1noc(C)c1C(=O)N1CCC[C@@]2(CCN(c3cccc(-c4ccccc4)c3)C2)C1 | inconclusive [inhibitor, single point] | –
N#Cc1ccc(NC(=O)N2CCC(c3nc4c(nnn4Cc4cccc(Cl)c4)c(=O)[nH]3)CC2)cc1 | inconclusive [inhibitor, single point] | –
Cc1ccc(-c2nnc3ccc(SC(C)C(=O)O)nn23)cc1 (stereo unspecified) | active: 10 µM | –
C[C@]12C=CC(=O)C=C1CCC1C2C(=O)C[C@]2(C)C1CC[C@]2(O)C(=O)CO (stereo partly specified) | inactive | –
CCOc1ccc(Nc2oc(-c3cccs3)nc2C#N)cc1 | inactive | –
Cc1ccccc1N(CC(=O)NCCSCc1ccco1)S(C)(=O)=O | inconclusive [inhibitor, single point] | –
O=C(/C=C\c1ccc(O)cc1)c1ccc(O)cc1O | inconclusive [inhibitor, single point] | –
c1ccc(-c2onc3cc4c(cc23)OCCO4)cc1 | active: 12.6 µM | –
CN1CCN(c2ncc3nc(CCc4ccccc4)c(=O)n(CCC#N)c3n2)CC1 | inactive | –
COc1cc(C2C(C#N)=C(N)Oc3cc(C)oc(=O)c32)cc2c1OCO2 (stereo unspecified) | inconclusive [inhibitor, single point] | –
CCOC(=O)c1c(C)[nH]c(C=Nc2ccccc2)c1O | active: 5.01 µM | –
O=C(c1cc(-c2ccccc2)on1)N1CCCC1 | inactive | –
N#CC1=C(N)Oc2c(sc3ccccc23)C1c1ccco1 (stereo unspecified) | active: 3.98 µM | –
COc1cccc(C(=O)Nc2cccc(SC)c2)c1 | inactive | –
CC(C)=CCC/C(C)=C/C=O | inactive | –
COc1cc(-c2nc3oc4ccccc4c(=O)c3c(=O)n2Cc2ccco2)cc(OC)c1OC | inactive | –
CCCCN(Cc1cc2cc(OC)ccc2[nH]c1=O)C(=O)c1ccco1 | inconclusive [inhibitor, single point] | –
COc1ccc(C2CC(=O)c3c(O)cc(O[C@H]4OC(COC5OC(C)C(O)C(O)[C@@H]5O)C(O)C(O)C4O)cc3O2)cc1O (stereo partly specified) | inactive | –
Cc1oc(-c2ccc(F)cc2)cc1-c1nn2c(-c3ccco3)nnc2s1 | inconclusive [inhibitor, single point] | –
COc1ccc(OC)c(/C=N/c2oc(-c3ccco3)c(-c3ccco3)c2C#N)c1 | inconclusive [inhibitor, partial curve] | –

Structure (SMILES) | Potency | activity change, negative = inhibition
O=C(CSc1nnc(-c2ccccc2)o1)N1CCN(c2ccccc2)CC1 | inconclusive [inhibitor, partial curve] | –
Cc1c(NC(=O)c2cccnc2)c(=O)n(-c2ccccc2)n1C | inactive | –
Cc1onc(-c2ccccc2)c1C(=O)NCC1CCCO1 (stereo unspecified) | inactive | –
CS(=O)(=O)OCCCCOS(C)(=O)=O | inconclusive [inhibitor, partial curve, poor fit] | –
COCc1cc(C)nc2sc(C(=O)N3CCN(c4ccccc4)CC3)c(N)c12 | active: 6.31 µM | –
Cc1ccccc1-c1nc(NC2CCNCC2)c2ccccc2n1 | inactive | –
COCC(=O)Nc1sc2c(c1C(=O)OC)CCC(C)C2 (stereo unspecified) | active: 25.1 µM | –
Cc1oc(/N=C/c2cccc3ccccc23)c(C#N)c1C | inconclusive [inhibitor, partial curve] | –
Cc1n[nH]c(C)c1N1C(=O)c2cccc3cc(Br)cc(c23)C1=O | – | inconclusive: -35.6% [inhibitor]
CC(=O)C(Sc1nn(C)c(=S)s1)C(=O)Nc1ccccc1 (stereo unspecified) | active: 7.94 µM | –
Cc1cccc(N2CCN(C(=O)CCNS(=O)(=O)c3ccc4c(c3)CCC(=O)N4)CC2)c1C | inconclusive [inhibitor, single point] | –
NC(=O)CCCCn1ccc(NC(N)=NCC(F)(F)F)n1 | inconclusive [inhibitor, single point] | –
CCC(O)c1cc2c(cc1NC(=O)c1cccs1)OCCO2 (stereo unspecified) | inconclusive [inhibitor, partial curve] | –
CC(=O)N1CCN(c2ccc(NCc3ccc4c(c3)OCO4)cc2)CC1 | inconclusive [inhibitor, partial curve] | –
CCN(CCNC(=O)C1CCN(Cc2nc(-c3cccc(Cl)c3)oc2C)CC1)c1ccccc1 | inconclusive [inhibitor, single point] | –
CCN(CC)CCNC(=O)c1cc2c(=O)n(C)c3ccccc3c2n1C | inconclusive [inhibitor, single point] | –
Cc1cc2c(c(=O)o1)[C@H](O)[C@H]1O[C@@H]1C2=O | inconclusive [inhibitor, partial curve] | –
CCOC(=O)N1CCN(c2c(F)cc3[nH]c(=S)[nH]c3c2Br)CC1 | inconclusive [inhibitor, single point] | –
CCSc1ccc2nnc(-c3cccc(F)c3)n2n1 | inconclusive [inhibitor, single point] | –
Cc1c(-c2ccc(O)cc2)nn(-c2ccc(O)cc2)c1-c1ccc(OCCN2CCCCC2)cc1 | inconclusive [inhibitor, single point] | –
CCOc1ccc2[nH]c(=O)c(CN(Cc3nnnn3Cc3ccco3)C3CCCCC3)cc2c1 | active: 3.16 µM | –
Cc1nn(-c2ccccc2)c(C)c1/C=N/O | inconclusive [inhibitor, partial curve] | –
O=C(Nc1sc2c(c1C(=O)NCc1ccco1)CCCC2)c1ccc2c(c1)OCO2 | inconclusive [inhibitor, single point] | –
CCOC(=O)Cc1csc(SCC(=O)Nc2sc3c(c2C(N)=O)CCC3)n1 | inconclusive [inhibitor, partial curve] | –
Cc1cccc(N2CSC3=C(C#N)C(c4ccc(C)o4)CC(=O)N3C2)c1 (stereo unspecified) | active: 1.58 µM | –
NC(=O)SCC(=O)Nc1ccc(Cl)cc1 | active: 25.1 µM | –

Structure (SMILES) | Potency | activity change, negative = inhibition
Cc1cccc(N2CCN(c3nc4ccc(Cl)cc4n4cnnc34)CC2)c1C | inactive | –
C=CCn1sc(=N)c(C#N)c1N | inconclusive [inhibitor, full curve, poor fit] | –
COC(=O)c1sc(=S)n(-c2cc(F)ccc2F)c1N | inconclusive [inhibitor, partial curve] | –
Cc1nc(NCc2ccccc2)c2nc(-c3ccccc3)n(CCN3CCOCC3)c2n1 | active: 20 µM | –
CCn1nnc(NC(=O)c2ccccc2Br)n1 | inactive | –
COc1ccc(CN(Cc2cc3cc4c(cc3[nH]c2=O)OCO4)C(=O)NC2CCCCC2)cc1 | active: 15.8 µM | –
Cc1ccccc1OCc1nc2ccccc2c(=O)n1/N=C/c1ccco1 | inactive | –
COc1ccc(C(=O)C2C3C4COC(O4)C(=O)C3C3C=Cc4ccccc4N32)c(OC)c1 (stereo unspecified) | inactive | –
COc1ccc(-c2cn3cc(C)ccc3n2)cc1OC | inconclusive [inhibitor, full curve] | –
O=c1[nH]c2c(c3c1CCCC3)CCCC2 | inconclusive [inhibitor, full curve, poor fit] | –
CCN1CCCC1CNC(=O)Cn1cc2c(n1)CCC(C)C2 (stereo unspecified) | inactive | –
O=C1[C@@H]2[C@H]3[C@H](O)[C@H](O)C/C(=N/OC[C@@H](O)COCc4ccco4)[C@@H]3CC[C@H]2C(=O)N1c1ccc(F)cc1F | – | inactive: -2.29% [at 11.4 µM]
CCCNC(=O)c1cccc(Cn2nc(C)c(Br)c2C)c1 | inconclusive [inhibitor, single point] | –
Cc1cc2cc(CNC(=O)c3cccs3)ccc2n1C | active: 15.8 µM | –
O=C(c1cccn2c(=O)c3cc(Br)ccc3nc12)N1CCN(c2ccccn2)CC1 | inactive | –
CCOC(=O)N1CCN(C(=O)c2cn(-c3ccc(C)c(C)c3)c(=O)c3ccccc23)CC1 | inactive | –
CC(C)=CC1C(CO)C1(C)C (stereo unspecified) | inconclusive [inhibitor, single point] | –
CN(C)c1ccc(C2C=C(c3ccc(Cl)cc3OC(F)F)Nc3ncnn32)cc1 (stereo unspecified) | inconclusive [inhibitor, single point] | –
CCOc1cc(C2C(C(=O)N3CCCCC3)=C(C)NC3=C2C(=O)CC(C)(C)C3)ccc1O (stereo unspecified) | inconclusive [inhibitor, single point] | –
COc1ccc(Cc2nnc(SCC(=O)c3ccc(OC)cc3)o2)cc1 | inactive | –
Cc1oc(C)c2c(=O)ccc3c(c12)OC(N)=C(C#N)C3c1ccccc1Cl (stereo unspecified) | inconclusive [inhibitor, single point] | –
O=C(C1=C(O)C(=O)N(Cc2ccco2)C1c1cccnc1)c1cc2ccccc2o1 (stereo unspecified) | active: 15.8 µM | –
c1cc2[nH]snc2c2nc(C3CC3)nc12 | inconclusive [inhibitor, single point] | –
CCOC(=O)C1CCCN(C2CC(=O)N(c3cccc(C(F)(F)F)c3)C2=O)C1 (stereo unspecified) | inconclusive [inhibitor, single point] | –

— PubChem BioAssay AID887 (National Center for Advancing Translational Sciences (NCATS), 2007)
